± gives the standard deviation of the averaged measurements. Growth of baker's yeast expressing single-residue variants of Pneumocystis jirovecii dihydrofolate reductase in 8.8 or 44 µM methotrexate (about 75% and 90% inhibition of the wild type). Selection coefficient per generation; 0 = like wild type, above 0 = less sensitive, below 0 = more sensitive or loss of function. No active / inactive call per row; the paper calls resistant above 0.220 (8.8 µM) or 0.243 (44 µM) together with a significance test. At 44 µM about 15% of codons end with one read or none, so the lowest values are floors (replicate rank correlation 0.74; 0.94 at 8.8 µM).
B1: UniProt A0EPZ9; numbered along this chain (parent)
chain: MDWQKSLTLIVALTLSRGIGLKNDLPWKLKSDMMFFSRVTSGLLVTRSTGQMNVVLMGRKTWESLPAHSRPLKNRINVVISRQEVLDLGGGAYHARSLDDALALLSQIYDSTSKIQLNRVFVIGGGELCKAAMEHSRLNRIIATVIHNEVDCDVFFPIDFRSSQSCLPWRKQDHSVLEAWVGSKVPQGKINENGFIYEFEMWIRDI

Variants of: B1
Test: selection coefficient against synonymous wild-type codons (log2 per generation); higher = faster growth than wild type
Conditions: with Saccharomyces cerevisiae carrying the variant on a plasmid
Experimental: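 Pooled growth of yeast carrying single-residue variants of P. jirovecii dihydrofolate reductase (own DFR1 gene intact), two passages at 30 °C, three cultures, sequenced before and after. Codons with under 15 starting reads are left out; codons of one change are averaged.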

| Variant | selection coefficient against synonymous wild-type codons (log2) (methotrexate 8.8 µM) | selection coefficient against synonymous wild-type codons (log2) (methotrexate 44 µM) |
| --- | --- | --- |
| R47Q | 0.0731 ± 0.088 | 0.0231 ± 0.028 |
| Q51M | -0.105 ± 0.034 | -0.0946 ± 0.069 |
| Q51S | -0.0494 ± 0.062 | -0.0961 ± 0.086 |
| Q51F | -0.272 ± 0.11 | -0.231 ± 0.068 |
| Q51D | -0.0651 ± 0.043 | -0.035 ± 0.08 |
| Q51H | -0.102 ± 0.058 | -0.0458 ± 0.087 |
| Q51E | 0.0218 ± 0.073 | 0.0496 ± 0.044 |
| Q51W | -0.193 ± 0.04 | -0.0524 ± 0.16 |
| Q51R | -0.0955 ± 0.07 | -0.112 ± 0.14 |
| Q51V | -0.097 ± 0.031 | -0.099 ± 0.17 |
| Q51Y | -0.313 ± 0.18 | -0.24 ± 0.084 |
| Q51L | -0.079 ± 0.059 | -0.0472 ± 0.073 |
| Q51T | -0.0455 ± 0.089 | -0.09 ± 0.043 |
| Q51G | 0.0123 ± 0.031 | -0.0363 ± 0.096 |
| Q51A | 0.00729 ± 0.035 | -0.0681 ± 0.12 |
| Q51K | -0.0167 ± 0.071 | 0.0418 ± 0.074 |
| Q51I | -0.175 ± 0.049 | -0.00824 ± 0.088 |
| Q51N | -0.11 ± 0.046 | -0.125 ± 0.14 |
| Q51P | -0.185 ± 0.082 | -0.105 ± 0.1 |
| Q51C | -0.0719 ± 0.12 | -0.000704 ± 0.033 |

| Variant | selection coefficient against synonymous wild-type codons (log2) (methotrexate 8.8 µM) | selection coefficient against synonymous wild-type codons (log2) (methotrexate 44 µM) |
| --- | --- | --- |
| T46K | -0.0355 ± 0.044 | -0.00785 ± 0.041 |
| T46E | 0.2 ± 0.053 | 0.212 ± 0.044 |
| T46A | 0.000668 ± 0.036 | -0.0179 ± 0.088 |
| T46F | -0.278 ± 0.065 | -0.358 ± 0.067 |
| T46G | 0.0565 ± 0.033 | 0.063 ± 0.034 |
| T46C | -0.059 ± 0.029 | -0.141 ± 0.054 |
| T46I | -0.31 ± 0.0099 | -0.161 ± 0.13 |
| T46L | -0.279 ± 0.16 | -0.198 ± 0.089 |
| T46S | 0.0148 ± 0.045 | 0.00518 ± 0.15 |
| T46V | -0.243 ± 0.085 | -0.203 ± 0.11 |
| T46N | 0.105 ± 0.012 | 0.0368 ± 0.035 |
| T46M | -0.274 ± 0.056 | -0.379 ± 0.035 |
| T46W | -0.426 ± 0.14 | -0.262 ± 0.05 |
| T46Y | -0.282 ± 0.12 | -0.234 ± 0.19 |
| T46H | 0.035 ± 0.036 | -0.0505 ± 0.097 |
| T46D | 0.238 ± 0.037 | 0.217 ± 0.069 |
| T46P | 0.102 ± 0.032 | 0.0866 ± 0.062 |
| T46R | -0.175 ± 0.074 | -0.0899 ± 0.1 |
| T46Q | 0.0513 ± 0.013 | -0.0137 ± 0.055 |
| L44R | 0.025 ± 0.034 | 0.0377 ± 0.079 |

| Variant | selection coefficient against synonymous wild-type codons (log2) (methotrexate 8.8 µM) | selection coefficient against synonymous wild-type codons (log2) (methotrexate 44 µM) |
| --- | --- | --- |
| L44K | 0.135 ± 0.0068 | 0.178 ± 0.011 |
| L44N | 0.241 ± 0.024 | 0.263 ± 0.024 |
| L44F | -0.0855 ± 0.071 | -0.0475 ± 0.046 |
| L44M | 0.0321 ± 0.035 | 0.0149 ± 0.039 |
| L44Q | 0.0678 ± 0.014 | 0.0278 ± 0.042 |
| L44V | -0.104 ± 0.035 | -0.12 ± 0.14 |
| L44P | 0.227 ± 0.028 | 0.206 ± 0.053 |
| L44I | -0.153 ± 0.097 | -0.0649 ± 0.07 |
| L44D | 0.353 ± 0.041 | 0.32 ± 0.046 |
| L44W | -0.117 ± 0.022 | -0.163 ± 0.12 |
| L44T | 0.086 ± 0.022 | 0.109 ± 0.029 |
| L44H | 0.105 ± 0.032 | 0.00649 ± 0.12 |
| L44S | 0.133 ± 0.018 | 0.139 ± 0.064 |
| L44Y | -0.0991 ± 0.052 | -0.0593 ± 0.12 |
| L44G | 0.179 ± 0.015 | 0.141 ± 0.052 |
| L44A | 0.122 ± 0.026 | 0.0524 ± 0.13 |
| L44E | 0.298 ± 0.022 | 0.278 ± 0.018 |
| L44C | -0.00854 ± 0.045 | 0.249 ± 0.03 |

— the supplement of paper PMC11125491
